According to the BET-seq Pho4 binding data (Le et al. 2018):
Some of the results follow. These are noisy estimates, calculated here from bound and input reads.

What follows are sequences tested against T1, Pho4 (S. cerevisiae) (UniProt P07270) (assay: relative binding free energy (BET-seq); higher = weaker binding). Details: reference: library average.
T1 sequence: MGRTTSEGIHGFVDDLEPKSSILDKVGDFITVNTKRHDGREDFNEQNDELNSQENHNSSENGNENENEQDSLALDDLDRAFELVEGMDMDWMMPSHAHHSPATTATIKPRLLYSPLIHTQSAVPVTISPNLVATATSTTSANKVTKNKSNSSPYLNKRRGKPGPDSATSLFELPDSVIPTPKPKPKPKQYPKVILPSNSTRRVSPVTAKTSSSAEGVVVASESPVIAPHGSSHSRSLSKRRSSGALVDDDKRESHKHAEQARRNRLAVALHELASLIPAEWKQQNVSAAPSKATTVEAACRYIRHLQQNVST

Row | Sequence | relative binding free energy
1 | GGGGACACGTGGGTGA | -0.06 kcal/mol
2 | CTTATCACGTGGGTGC | -0.03 kcal/mol
3 | GTTGGCACGTGAAGGC | 0.13 kcal/mol
4 | TCAGGCACGTGTGCGT | -0.13 kcal/mol
5 | TTGGACACGTGGGATA | -0.04 kcal/mol
6 | AAGAGCACGTGATGAT | 0.09 kcal/mol
7 | TTAATCACGTGTTATG | 0.15 kcal/mol
8 | GTCACCACGTGGGGGT | -0.2 kcal/mol
9 | TCGGGCACGTGGGTCG | -0.14 kcal/mol
10 | TAAGTCACGTGGTATT | 0.16 kcal/mol
11 | GATGACACGTGAGTTT | 0.36 kcal/mol
12 | AGGGTCACGTGATGGC | 0.31 kcal/mol
13 | CTGATCACGTGGGTGG | 0.03 kcal/mol
14 | GGCTCCACGTGGGGAG | 0.1 kcal/mol
15 | AGGTTCACGTGTGCTG | 0.26 kcal/mol
16 | GAGTACACGTGTATGG | 0.2 kcal/mol
17 | TTAACCACGTGAGGGT | 0.24 kcal/mol
18 | TTGTGCACGTGCGGGC | 0 kcal/mol
19 | TTAAACACGTGTGTTG | 0 kcal/mol
20 | AGGAGCACGTGGGGGC | -0.23 kcal/mol
21 | AAGAGCACGTGGGCGC | -0.1 kcal/mol
22 | GGTGTCACGTGATTCA | 0.22 kcal/mol
23 | GTAAACACGTGTGTAT | 0.02 kcal/mol
24 | GGTTCCACGTGGTGAT | 0.01 kcal/mol
25 | TATAGCACGTGGCGGG | -0.16 kcal/mol

Row | Sequence | relative binding free energy
26 | CATGTCACGTGACGTG | 0.29 kcal/mol
27 | TGCTACACGTGTTGAG | 0.13 kcal/mol
28 | TTAGTCACGTGAGGTC | 0.32 kcal/mol
29 | GATTGCACGTGTAAAT | 0.29 kcal/mol
30 | ACTTGCACGTGGGGTA | -0.07 kcal/mol
31 | TAGCGCACGTGATAGG | -0.03 kcal/mol
32 | CAGTTCACGTGATGTG | 0.37 kcal/mol
33 | GGTTGCACGTGAGTGT | 0.23 kcal/mol
34 | GATTGCACGTGAATAT | 0.27 kcal/mol
35 | ATGTACACGTGGGCAA | -0.09 kcal/mol
36 | ATAGACACGTGTTTAA | 0.08 kcal/mol
37 | GCATTCACGTGTGGGG | 0.34 kcal/mol
38 | GTTGGCACGTGTGGGC | 0.01 kcal/mol
39 | AAATGCACGTGGGGTA | -0.28 kcal/mol
40 | GGGGCCACGTGGTGTC | -0.26 kcal/mol
41 | TTTTTCACGTGGCGAC | 0.37 kcal/mol
42 | CGTGGCACGTGGTGAC | -0.12 kcal/mol
43 | AGTCGCACGTGAGGGA | 0.24 kcal/mol
44 | ATTTTCACGTGTCTTT | 0.17 kcal/mol
45 | GGCCTCACGTGGGGGA | 0.01 kcal/mol
46 | TGAGCCACGTGTGGTG | 0.02 kcal/mol
47 | AAGAGCACGTGCGGGT | -0.04 kcal/mol
48 | GTTGGCACGTGTTTGT | -0.07 kcal/mol
49 | CAGTGCACGTGGTTGG | -0.06 kcal/mol
50 | TTATCCACGTGGAGTG | 0 kcal/mol

Row | Sequence | relative binding free energy
51 | TTTGTCACGTGAATCA | 0.24 kcal/mol
52 | GGAGGCACGTGGTTGA | -0.13 kcal/mol
53 | TCGTGCACGTGGGGAA | -0.11 kcal/mol
54 | TGCTTCACGTGTGATG | 0.27 kcal/mol
55 | TTGTTCACGTGATACA | 0.38 kcal/mol
56 | GTGGACACGTGAGTAT | 0.18 kcal/mol
57 | CTGTTCACGTGGTAAA | 0.37 kcal/mol
58 | CGAGTCACGTGGATAG | 0.13 kcal/mol
59 | ATATTCACGTGGAGGG | 0.19 kcal/mol
60 | AGTTTCACGTGGCGCT | 0.12 kcal/mol
61 | TAGCTCACGTGTTGGG | 0.15 kcal/mol
62 | ATTAACACGTGACGGG | 0.07 kcal/mol
63 | ATGTGCACGTGTGGGC | 0.03 kcal/mol
64 | GGTAGCACGTGGGGCG | -0.14 kcal/mol
65 | AATGGCACGTGAGTCG | 0.09 kcal/mol
66 | GGACGCACGTGTGAGT | -0.01 kcal/mol
67 | CTTAACACGTGTAGGT | -0.15 kcal/mol
68 | ATATGCACGTGTAGGA | -0.05 kcal/mol
69 | TATATCACGTGTGTTC | 0.15 kcal/mol
70 | TATTGCACGTGGGGGT | -0.04 kcal/mol
71 | TTAGGCACGTGGGTCC | -0.22 kcal/mol
72 | TATAGCACGTGGTAGC | -0.1 kcal/mol
73 | GAGGTCACGTGGGAGA | -0.02 kcal/mol
74 | AATGGCACGTGTGGCC | 0 kcal/mol
75 | AGGCTCACGTGTAAAG | 0.37 kcal/mol

Row | Sequence | relative binding free energy
76 | CATGGCACGTGGCAGG | -0.2 kcal/mol
77 | TTGTCCACGTGAACGG | 0.28 kcal/mol
78 | ATTATCACGTGAGGTG | 0.32 kcal/mol
79 | GTAGACACGTGGTTAA | 0.1 kcal/mol
80 | TGGAGCACGTGTGATA | -0.02 kcal/mol
81 | TGCAACACGTGTGGGG | 0 kcal/mol
82 | TTGCACACGTGGTTAT | -0.02 kcal/mol
83 | ATTGCCACGTGGGGTC | -0.09 kcal/mol
84 | CGATTCACGTGGTTAG | 0.14 kcal/mol
85 | GATGTCACGTGGGAGA | 0.06 kcal/mol
86 | ATTAACACGTGTGCGT | -0.1 kcal/mol
87 | AGGTTCACGTGGATCA | 0.49 kcal/mol
88 | AGTTCCACGTGTAAGT | 0.25 kcal/mol
89 | TGCGTCACGTGGGGCT | -0.03 kcal/mol
90 | GTGTTCACGTGGTTGG | 0.29 kcal/mol
91 | GAGTGCACGTGAAGTA | 0.32 kcal/mol
92 | CTTAACACGTGTGATT | 0.12 kcal/mol
93 | AGCGACACGTGTTAGG | 0.08 kcal/mol
94 | TTGGTCACGTGATGTT | 0.18 kcal/mol
95 | TGGATCACGTGAAGTA | 0.3 kcal/mol
96 | ACTTTCACGTGTTATA | 0.4 kcal/mol
97 | CTATTCACGTGGGGCT | 0.07 kcal/mol
98 | AGAGTCACGTGGGTGA | -0.11 kcal/mol
99 | GGTGGCACGTGGCGCA | -0.3 kcal/mol
100 | AATGACACGTGGAGGC | 0.09 kcal/mol

Row | Sequence | relative binding free energy
101 | TGGTGCACGTGTTAAG | 0.07 kcal/mol
102 | CTAGTCACGTGTATGA | 0.14 kcal/mol
103 | TGATGCACGTGGTGAC | -0.08 kcal/mol
104 | ATGGGCACGTGTAGAC | 0 kcal/mol
105 | TCTGTCACGTGTGGTC | 0.02 kcal/mol
106 | ATGGGCACGTGCGGGG | -0.08 kcal/mol
107 | TAGTTCACGTGGAGCG | 0.26 kcal/mol
108 | TAGTGCACGTGGGTAG | -0.16 kcal/mol
109 | TTGGACACGTGGTAAT | 0.08 kcal/mol
110 | GTAGGCACGTGGCGGT | -0.13 kcal/mol
111 | GGATACACGTGGGATG | 0.03 kcal/mol
112 | CTGAGCACGTGTAAAT | 0.27 kcal/mol
113 | GGCATCACGTGGGGTT | 0.2 kcal/mol
114 | CATTTCACGTGTTATT | 0.2 kcal/mol
115 | GTGTCCACGTGTTTGA | 0 kcal/mol
116 | TTTGTCACGTGTTGTG | 0.13 kcal/mol
117 | CATTTCACGTGTTGGT | 0.23 kcal/mol
118 | AACGGCACGTGTGATA | 0.19 kcal/mol
119 | TAAATCACGTGTGAGT | 0.15 kcal/mol
120 | GGGTTCACGTGGGAGA | 0.39 kcal/mol
121 | ATTGGCACGTGCGTTC | -0.16 kcal/mol
122 | AAGGGCACGTGCTGAT | -0.07 kcal/mol
123 | TGTAGCACGTGTAGCT | -0.05 kcal/mol
124 | TGGTTCACGTGTTACA | 0.24 kcal/mol
125 | GGTCACACGTGTCGTG | 0.1 kcal/mol

Row | Sequence | relative binding free energy
126 | TGCGGCACGTGGGTAG | -0.25 kcal/mol
127 | GTTGACACGTGCCTGG | -0.03 kcal/mol
128 | CTGCTCACGTGGGTGT | -0.03 kcal/mol
129 | TAGGACACGTGTCTGT | 0.09 kcal/mol
130 | TGGGACACGTGTGAGA | 0.16 kcal/mol
131 | GGACTCACGTGATGGG | 0.2 kcal/mol
132 | GGGAGCACGTGGTCGT | -0.12 kcal/mol
133 | TAATACACGTGATGGT | 0.16 kcal/mol
134 | TAGGCCACGTGGGGGT | -0.31 kcal/mol
135 | TTGGTCACGTGTCGGC | 0.18 kcal/mol
136 | TTCGGCACGTGTAGAG | 0.03 kcal/mol
137 | TGTGTCACGTGGAGTG | 0.08 kcal/mol
138 | CGGGTCACGTGGTAGC | 0.16 kcal/mol
139 | TGGATCACGTGTGAAG | 0.15 kcal/mol
140 | GTGACCACGTGGGTGA | -0.09 kcal/mol
141 | GGCGGCACGTGCAGTG | -0.05 kcal/mol
142 | TGTTGCACGTGAATGA | 0.27 kcal/mol
143 | AGATCCACGTGGGGTT | -0.13 kcal/mol
144 | ATTTGCACGTGGTGGG | -0.03 kcal/mol
145 | TTCGTCACGTGCGTTG | 0.14 kcal/mol
146 | GGGGTCACGTGGATGT | 0.19 kcal/mol
